Reference: the supplement of paper PMC10369915
This is one part of the list. Cut-off read from the data, not from the text of the source: active = 3.2 or more and inactive = the rest. Only a few entries rise above the background.

Key:
Assay in all cases: enrichment score (SH2-bound / input frequency) (ratio); bacterial display of known human phosphotyrosine sites (pTyr-Var adds point mutants) read by sequencing; higher = stronger binding; tyrosines were phosphorylated by kinases first
Details in all cases: peptide library: Human pTyr
SHP2 C-SH2 domain E139D = molecular target: SHP2 C-SH2 domain E139D
[1] = molecular target: SHP2 C-SH2 domain wild-type
SHP2 N-SH2 domain L43F = molecular target: SHP2 N-SH2 domain L43F
SHP2 N-SH2 domain T42A = molecular target: SHP2 N-SH2 domain T42A
SHP2 N-SH2 domain T52S = molecular target: SHP2 N-SH2 domain T52S
[2] = molecular target: SHP2 N-SH2 domain wild-type

Measured: enrichment score
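Note: displayed peptides selected on beads carrying the immobilized SH2 domain, with library peptides lacking any tyrosine serving as negative controls.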

NEEGKYGYVLRSYLA [FYB_HUMAN_757]
inactive: SHP2 C-SH2 domain E139D 0.944 | [1] 1.03 | SHP2 N-SH2 domain L43F 1.07 | SHP2 N-SH2 domain T42A 1.28 | SHP2 N-SH2 domain T52S 1.16 | [2] 1.41

KYKKQFRYESQLQMV [FLT3_HUMAN_572]
inactive: SHP2 C-SH2 domain E139D 1.16 | [1] 0.75 | SHP2 N-SH2 domain L43F 0.812 | SHP2 N-SH2 domain T42A 0.855 | SHP2 N-SH2 domain T52S 0.912 | [2] 0.951

KSLDPMVYMNDKSPL [FAK2_HUMAN_834]
inactive: SHP2 C-SH2 domain E139D 1.03 | [1] 0.608 | SHP2 N-SH2 domain L43F 0.856 | SHP2 N-SH2 domain T42A 0.803 | SHP2 N-SH2 domain T52S 0.653 | [2] 0.637

EEDDEENYENVPRVL [FCRL3_HUMAN_722]
inactive: SHP2 C-SH2 domain E139D 1.04 | [1] 0.893 | SHP2 N-SH2 domain L43F 0.88 | SHP2 N-SH2 domain T42A 1.11 | SHP2 N-SH2 domain T52S 1.12 | [2] 1.2

DINNIDYYKKTTNGR [FGFR2_HUMAN_657]
inactive: SHP2 C-SH2 domain E139D 1.21 | [1] 0.797 | SHP2 N-SH2 domain L43F 0.987 | SHP2 N-SH2 domain T42A 0.545 | SHP2 N-SH2 domain T52S 0.984 | [2] 1.04

SSLPEGYYEEAVPLS [AFAP1_HUMAN_94]
inactive: SHP2 C-SH2 domain E139D 0.552 | [1] 0.655 | SHP2 N-SH2 domain L43F 0.618 | SHP2 N-SH2 domain T42A 0.596 | SHP2 N-SH2 domain T52S 0.533 | [2] 0.664

NMRPPFTYATLIRWA [FOXP3_HUMAN_342]
active: SHP2 C-SH2 domain E139D 3.27 | [2] 3.4
inactive: [1] 2.91 | SHP2 N-SH2 domain L43F 3 | SHP2 N-SH2 domain T42A 2.64 | SHP2 N-SH2 domain T52S 2.98

SYGAADHYGPDPTKA [FGR_HUMAN_34]
inactive: SHP2 C-SH2 domain E139D 0.647 | [1] 0.541 | SHP2 N-SH2 domain L43F 0.493 | SHP2 N-SH2 domain T42A 0.443 | SHP2 N-SH2 domain T52S 0.559 | [2] 0.577

EPPPVVNYEEDARSV [FER_HUMAN_402]
inactive: SHP2 C-SH2 domain E139D 0.878 | [1] 0.892 | SHP2 N-SH2 domain L43F 0.784 | SHP2 N-SH2 domain T42A 0.985 | SHP2 N-SH2 domain T52S 0.834 | [2] 0.965

EAAALRVYFQGGGGG [FHIT_HUMAN_145]
inactive: SHP2 C-SH2 domain E139D 0.841 | [1] 0.736 | SHP2 N-SH2 domain L43F 0.83 | SHP2 N-SH2 domain T42A 0.759 | SHP2 N-SH2 domain T52S 0.77 | [2] 0.829

ADNDGEIYDDIADGC [FYB_HUMAN_771]
inactive: SHP2 C-SH2 domain E139D 1.22 | [1] 1.06 | SHP2 N-SH2 domain L43F 1.11 | SHP2 N-SH2 domain T42A 1.16 | SHP2 N-SH2 domain T52S 1.43 | [2] 1.41

FTATEPQYQPGENLG [FYN_HUMAN_531]
inactive: SHP2 C-SH2 domain E139D 0.619 | [1] 0.514 | SHP2 N-SH2 domain L43F 0.568 | SHP2 N-SH2 domain T42A 0.579 | SHP2 N-SH2 domain T52S 0.523 | [2] 0.474

GFQAEGTYKWVNPHK [G6PD_HUMAN_507_YA]
inactive: SHP2 C-SH2 domain E139D 1.08 | [1] 0.874 | SHP2 N-SH2 domain L43F 0.746 | SHP2 N-SH2 domain T42A 0.823 | SHP2 N-SH2 domain T52S 0.887 | [2] 0.959

GRTARGSYGAIKTTA [FYB_HUMAN_559_YA]
inactive: SHP2 C-SH2 domain E139D 0.837 | [1] 0.875 | SHP2 N-SH2 domain L43F 0.744 | SHP2 N-SH2 domain T42A 0.823 | SHP2 N-SH2 domain T52S 0.811 | [2] 0.879

GKPADAVYGQKEIHR [G3BP1_HUMAN_56]
inactive: SHP2 C-SH2 domain E139D 1.13 | [1] 1.07 | SHP2 N-SH2 domain L43F 0.981 | SHP2 N-SH2 domain T42A 1.08 | SHP2 N-SH2 domain T52S 1.21 | [2] 1.08

YYRQQAAYYAQTSPQ [FUBP1_HUMAN_625]
inactive: SHP2 C-SH2 domain E139D 0.48 | [1] 0.709 | SHP2 N-SH2 domain L43F 0.647 | SHP2 N-SH2 domain T42A 0.7 | SHP2 N-SH2 domain T52S 0.603 | [2] 0.603

ASVDSSLYNLPRSAS [GAB1_HUMAN_259_YA]
inactive: SHP2 C-SH2 domain E139D 0.678 | [1] 0.498 | SHP2 N-SH2 domain L43F 0.577 | SHP2 N-SH2 domain T42A 0.688 | SHP2 N-SH2 domain T52S 0.576 | [2] 0.561

ASVDSSLYNLPRSYS [GAB1_HUMAN_259]
inactive: SHP2 C-SH2 domain E139D 0.604 | [1] 0.484 | SHP2 N-SH2 domain L43F 0.488 | SHP2 N-SH2 domain T42A 0.49 | SHP2 N-SH2 domain T52S 0.616 | [2] 0.509

SETTKGAYSLSIRDW [FYN_HUMAN_185]
inactive: SHP2 C-SH2 domain E139D 0.947 | [1] 0.71 | SHP2 N-SH2 domain L43F 0.862 | SHP2 N-SH2 domain T42A 0.72 | SHP2 N-SH2 domain T52S 0.937 | [2] 0.789

KAKKQFRYESQLQMV [FLT3_HUMAN_572_YA]
inactive: SHP2 C-SH2 domain E139D 1.37 | [1] 1.32 | SHP2 N-SH2 domain L43F 1.34 | SHP2 N-SH2 domain T42A 1.14 | SHP2 N-SH2 domain T52S 1.3 | [2] 1.33

GRTARGSYGYIKTTA [FYB_HUMAN_559]
inactive: SHP2 C-SH2 domain E139D 1.3 | [1] 1.3 | SHP2 N-SH2 domain L43F 1.22 | SHP2 N-SH2 domain T42A 1.17 | SHP2 N-SH2 domain T52S 1.15 | [2] 1.46

TSLNSNDYGAGGQKR [FUBP1_HUMAN_58_YA]
inactive: SHP2 C-SH2 domain E139D 1.43 | [1] 0.754 | SHP2 N-SH2 domain L43F 0.926 | SHP2 N-SH2 domain T42A 0.896 | SHP2 N-SH2 domain T52S 0.743 | [2] 0.998

DVADKVDYLSSLGKT [FLOT2_HUMAN_163_YA]
inactive: SHP2 C-SH2 domain E139D 0.548 | [1] 0.612 | SHP2 N-SH2 domain L43F 0.712 | SHP2 N-SH2 domain T42A 0.584 | SHP2 N-SH2 domain T52S 0.728 | [2] 0.594

KFSHSGRYIMTRDAL [2ABB_HUMAN_295_YA]
inactive: SHP2 C-SH2 domain E139D 2.99 | [1] 3.12 | SHP2 N-SH2 domain L43F 2.87 | SHP2 N-SH2 domain T42A 3.05
active: SHP2 N-SH2 domain T52S 3.22 | [2] 3.85

TEFRDSTYDLPRSLA [GAB2_HUMAN_266]
inactive: SHP2 C-SH2 domain E139D 0.561 | [1] 0.557 | SHP2 N-SH2 domain L43F 0.58 | SHP2 N-SH2 domain T42A 0.56 | SHP2 N-SH2 domain T52S 0.61 | [2] 0.534

KGEHSIVYLKPSAAF [FKBP4_HUMAN_220_YA]
inactive: SHP2 C-SH2 domain E139D 1.09 | [1] 0.914 | SHP2 N-SH2 domain L43F 1.11 | SHP2 N-SH2 domain T42A 1.58 | SHP2 N-SH2 domain T52S 1.23 | [2] 1.08

CSIESDIYAEIPDET [FAK2_HUMAN_402]
inactive: SHP2 C-SH2 domain E139D 1.59 | [1] 1.36 | SHP2 N-SH2 domain L43F 1.24 | SHP2 N-SH2 domain T42A 1.51 | SHP2 N-SH2 domain T52S 1.46 | [2] 2.39

DIHHIDYYKKTTNGR [FGFR1_HUMAN_654]
inactive: SHP2 C-SH2 domain E139D 1.31 | [1] 0.935 | SHP2 N-SH2 domain L43F 1.03 | SHP2 N-SH2 domain T42A 1.18 | SHP2 N-SH2 domain T52S 0.834 | [2] 0.904

VAEELNIYSATASEL [FCERB_HUMAN_225_YA]
inactive: SHP2 C-SH2 domain E139D 0.646 | [1] 0.551 | SHP2 N-SH2 domain L43F 0.779 | SHP2 N-SH2 domain T42A 0.792 | SHP2 N-SH2 domain T52S 0.568 | [2] 0.966

TDPEALHYDYIDVEM [AFAP1_HUMAN_451]
inactive: SHP2 C-SH2 domain E139D 0.957 | [1] 0.888 | SHP2 N-SH2 domain L43F 2.36 | SHP2 N-SH2 domain T42A 2.71 | SHP2 N-SH2 domain T52S 1.91 | [2] 1.12

EDLLCFAYQVAKGME [FLT3_HUMAN_793]
inactive: SHP2 C-SH2 domain E139D 1.75 | [1] 1.4 | SHP2 N-SH2 domain L43F 1.4 | SHP2 N-SH2 domain T42A 1.42 | SHP2 N-SH2 domain T52S 1.48 | [2] 1.64

SKTMTPTYDAHDGSP [FERMT2_HUMAN_193]
inactive: SHP2 C-SH2 domain E139D 0.865 | [1] 0.611 | SHP2 N-SH2 domain L43F 0.666 | SHP2 N-SH2 domain T42A 0.774 | SHP2 N-SH2 domain T52S 0.783 | [2] 0.922

ALTSNQEYLDLSMPL [FGFR1_HUMAN_766]
inactive: SHP2 C-SH2 domain E139D 0.858 | [1] 0.847 | SHP2 N-SH2 domain L43F 0.599 | SHP2 N-SH2 domain T42A 0.481 | SHP2 N-SH2 domain T52S 0.625 | [2] 0.766

YEKSDGVYTGLSTRN [FCERG_HUMAN_65]
inactive: SHP2 C-SH2 domain E139D 0.589 | [1] 0.494 | SHP2 N-SH2 domain L43F 0.767 | SHP2 N-SH2 domain T42A 0.5 | SHP2 N-SH2 domain T52S 0.653 | [2] 0.473

DIMSDSNYVVRGNAR [FLT3_HUMAN_842]
inactive: SHP2 C-SH2 domain E139D 0.554 | [1] 0.471 | SHP2 N-SH2 domain L43F 0.523 | SHP2 N-SH2 domain T42A 0.707 | SHP2 N-SH2 domain T52S 0.56 | [2] 0.457

TSLNSNDYGYGGQKR [FUBP1_HUMAN_58]
inactive: SHP2 C-SH2 domain E139D 0.851 | [1] 0.815 | SHP2 N-SH2 domain L43F 1.18 | SHP2 N-SH2 domain T42A 0.799 | SHP2 N-SH2 domain T52S 0.868 | [2] 0.73
